Reference: the supplement of paper PMC3334620
The full ranking holds about 33,000 sequences; the median of “E-score (-0.5 to 0.5)” is about -0.054, and the highest 2% start at about 0.35. Some of the results follow.

target: T1, Stb5 (UniProt P38699); assay: PBM E-score (8-mer binding enrichment) (E-score (-0.5 to 0.5)); higher = stronger / more preferred TF binding; most listed sequences are background and not binding sites; conditions: protein concentration: 200 nM; construct: GST-full length
T1 sequence: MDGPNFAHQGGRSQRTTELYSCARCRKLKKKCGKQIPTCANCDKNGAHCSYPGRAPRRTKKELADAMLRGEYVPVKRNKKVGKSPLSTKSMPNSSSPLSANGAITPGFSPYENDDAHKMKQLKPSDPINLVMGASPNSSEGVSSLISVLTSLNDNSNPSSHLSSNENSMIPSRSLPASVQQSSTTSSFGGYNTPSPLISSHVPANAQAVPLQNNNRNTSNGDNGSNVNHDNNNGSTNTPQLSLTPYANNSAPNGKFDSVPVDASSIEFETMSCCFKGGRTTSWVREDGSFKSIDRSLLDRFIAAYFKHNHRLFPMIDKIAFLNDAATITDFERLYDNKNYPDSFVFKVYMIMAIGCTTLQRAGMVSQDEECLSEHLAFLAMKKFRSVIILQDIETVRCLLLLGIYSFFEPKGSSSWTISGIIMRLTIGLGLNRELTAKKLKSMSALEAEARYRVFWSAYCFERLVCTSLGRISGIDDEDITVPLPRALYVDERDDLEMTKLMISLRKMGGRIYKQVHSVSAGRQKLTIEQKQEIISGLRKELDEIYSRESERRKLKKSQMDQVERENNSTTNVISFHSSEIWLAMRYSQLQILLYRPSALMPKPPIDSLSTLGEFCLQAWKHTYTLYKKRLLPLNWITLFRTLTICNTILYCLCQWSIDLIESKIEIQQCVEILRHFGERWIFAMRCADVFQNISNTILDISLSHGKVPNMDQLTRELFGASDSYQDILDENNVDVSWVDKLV
Summary of the method: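 Full-length yeast transcription factors or their DNA-binding domains, GST-tagged and expressed with PURExpress, were applied at about 100-200 nM to universal all-10-mer Agilent arrays. These arrays had been made double-stranded by primer extension on fresh or once-stripped slides. Detection used fluorescent anti-GST, normalisation used masliner, and E-scores for ungapped eight-base words pooled with reverse complements came from the Universal PBM Analysis Suite.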

Sequence | PBM E-score
ATTAGGAG | -0.109
ACAGTGAT | -0.196
CCGATAAC | 0.295
GTTTTGAA | -0.263
GGCGGTAA | 0.385
AAGGTTCC | -0.0938
ATCGCACC | 0.27
CCAAGTGA | -0.199
GGCGTACC | 0.0465
CATAGATA | -0.125
TTCGCGAA | 0.0501
CGGAAAGC | -0.0296
ATCTGCCC | 0.128
AAACTTAG | 0.0147
TCGATACA | -0.00918
CAGGCTGC | -0.194
GTATTAAA | 0.191
CATCGCTC | -0.00533
CCTAACAA | -0.157
TAACGGTA | 0.136
TACTTTGA | -0.207
GGGTCCGA | 0.332
CCTGATAA | -0.0146
CCCCTAAA | 0.0172
GGATCGCA | -0.0659

Sequence | PBM E-score
CATGGAGA | -0.245
CCAGGAGA | -0.246
ATGGCTGC | -0.162
GTCTAGTA | -0.152
CCTAATAC | -0.034
ACTAGTTA | -0.164
ACGGAACG | 0.0455
TCAGAAGA | -0.148
CTTATAAA | 0.0811
CGCAAACA | -0.0985
CCCCTTGC | -0.297
CAGTGGCC | -0.124
CTCCTGTA | 0.0419
CAAATAGC | 0.00995
ACGACCGC | 0.269
AAGGTCGA | -0.0719
GGTAGTAA | 0.0863
GGTCGAAC | -0.0558
GTATCTCA | -0.0447
GCGCGCTA | 0.112
AGATTGCG | -0.0306
CACCGTCA | 0.333
AGTCATAA | 0.0146
CTGGGAAA | -0.125
CAGAGCTG | -0.124

Sequence | PBM E-score
AATCAGAC | -0.173
AGATGACA | -0.219
TCATCTAA | -0.0557
GGAGAAAA | 0.226
CCACAACG | 0.146
TATCCGGA | 0.265
CATCCACG | -0.0788
CCGGGGCG | 0.302
CAATCGTG | -0.129
ATTCTTTA | -0.135
GCCATGCA | -0.0118
GCCGTAAA | 0.278
CGCGTCCA | -0.0865
GGATACCC | 0.0609
CGCCTTTC | 0.0594
ATAAATGA | -0.243
TAATTGAA | 0.0222
AATCCCAT | -0.042
GATCCCGC | 0.232
CGAGATCG | 0.0313
CCAGCGCC | 0.104
AGACGAAA | 0.0569
AAGATGCA | -0.283
CCGAGTCC | 0.0504
GTACCACA | -0.171

Sequence | PBM E-score
CGGGCAAC | 0.0447
CATAATAG | -0.00555
CCATATCA | -0.0191
CGACCCGC | 0.198
AGCTTCAT | -0.0104
ACGCCTGG | 0.0202
GTTTTTTA | -0.0247
GCTTCTCA | -0.109
CCGGTAGG | 0.184
AGTCTTTC | -0.273
CCTCGGGA | 0.0973
AACTACTC | 0.017
CACTCGGC | 0.165
AACTTTAC | 0.0785
ATGCACCA | -0.08
AAGCGAAT | -0.144
ATAAGTTC | 0.177
CCCGACGG | 0.437
CATCACAA | -0.234
TATCGCCA | 0.0895
ACAAGTCT | -0.32
TATCGACA | -0.23
CACTCGTC | -0.00096
AGACATAT | -0.25
GTGATCCA | -0.0848

Sequence | PBM E-score
GAACTACA | -0.0629
AAAGCCGG | 0.286
CGACATCA | 0.0974
AGCGGCGC | 0.363
AGATAGTA | -0.0862
GGGAGCCA | -0.244
GAAGGGTC | -0.132
GCCCTTAA | 0.191
AACAAGAG | -0.152
CATGCCAC | -0.0849
AAAATTAA | 0.00863
CTTTCACA | -0.0931
GCGGCCTA | 0.178
CTACTCAG | -0.216
TACGTGAA | -0.13
CTAAGGGA | -0.0323
AGCGGTCC | 0.327
AATGCCTG | -0.102
ACGCTCCC | -0.0325
AAGCCATA | -0.327
TCTTTTCA | -0.0123
GAACGGTC | 0.192
AATATATC | 0.171
ATTACCAC | -0.0328
AGGAAAAT | 0.015

Sequence | PBM E-score
AACTGACA | -0.194
GAAGCTTA | -0.173
CGGCACCA | 0.394
GAGACGGC | -0.00918
CTATGTAC | -0.172
AATACCAA | -0.0935
GGATCAGA | -0.166
GATTAAGA | 0.0302
AACTAATC | 0.027
ATCTAGAT | -0.335
ACAAGTCC | 0.154
AGGTTTGG | -0.148
CAGTGCCA | -0.249
CTCTTAGC | -0.056
ATGAACTC | -0.133
ATCAGTCA | -0.13
GAATAACA | 0.163
GACCACTA | -0.272
CTCTATGA | -0.245
AGGAGAAA | -0.166
AATAGACA | -0.221
AAATTGCG | 0.124
GTGTACAA | 0.0725
GGCTTTAC | 0.287
ACCGGAGT | 0.347

Sequence | PBM E-score
CGTTTGAC | -0.0143
AAATTATC | -0.0238
GACGTAAC | -0.00555
AGATTGAC | -0.0509
GTGTAGGA | 0.0113
GAAGGATA | 0.00673
AGCAGAAG | -0.0817
ACAGGCGC | 0.0177
TCGTATCA | -0.097
GAGCGCAA | -0.122
GCGGGTTA | 0.148
CCGCGAGA | 0.133
CGAGTCAC | -0.0126
TCTTTGAA | -0.122
CACTATCA | -0.126
GAACAAAA | -0.0824
AACCAAAA | -0.102
CAGTTCAA | -0.157
ACCCAGGA | -0.229
ATTTCTAG | 0.0951
CCCACATA | 0.0472
CCAGCACA | -0.157
